Changes are numbered by the printed parent chain. Results are given in words; binding and its absence hold for the method and conditions named. Binding seen in cells or lysates may run through a third protein. Some results given as binding are weak or reduced against the parent protein; the word gives no strength. Tags and fused reporters may be left off the sequences shown.
Columns and labels:
Assay in all cases: co-IP; fission yeast cell extracts; lysis and wash buffer 50 mM Tris pH 8.0, 150 mM NaCl, 10% glycerol, 5 mM EDTA, 0.5% NP40; IP with anti-myc or anti-FLAG and Dynabeads Protein G, western blot; Tpz1-Pot1 also in ccq1Δ poz1Δ cells (anti-myc IP of Tpz1-myc)
[1] = molecular target: T1, Tpz1-W498R,I501R (myc-tagged, expressed in fission yeast) (Schizosaccharomyces pombe) (UniProt O14246)
T1 sequence: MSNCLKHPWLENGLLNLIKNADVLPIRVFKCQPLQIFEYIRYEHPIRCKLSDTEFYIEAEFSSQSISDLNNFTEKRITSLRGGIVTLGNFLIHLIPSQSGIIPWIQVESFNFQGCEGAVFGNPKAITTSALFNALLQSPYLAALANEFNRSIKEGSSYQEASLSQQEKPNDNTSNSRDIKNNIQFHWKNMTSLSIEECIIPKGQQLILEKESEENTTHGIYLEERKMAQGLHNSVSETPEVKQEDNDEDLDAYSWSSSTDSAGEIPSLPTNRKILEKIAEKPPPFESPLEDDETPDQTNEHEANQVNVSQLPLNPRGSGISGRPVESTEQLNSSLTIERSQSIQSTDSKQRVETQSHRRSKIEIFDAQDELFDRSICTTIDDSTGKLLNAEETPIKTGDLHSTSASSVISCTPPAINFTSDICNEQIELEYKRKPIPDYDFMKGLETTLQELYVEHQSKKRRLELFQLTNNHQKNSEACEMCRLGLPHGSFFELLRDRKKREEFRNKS

[2] = molecular target: T2, Tpz1-[1–485] (C-terminally truncated Tpz1, myc-tagged, expressed in fission yeast) (Schizosaccharomyces pombe) (UniProt O14246)
T2 sequence: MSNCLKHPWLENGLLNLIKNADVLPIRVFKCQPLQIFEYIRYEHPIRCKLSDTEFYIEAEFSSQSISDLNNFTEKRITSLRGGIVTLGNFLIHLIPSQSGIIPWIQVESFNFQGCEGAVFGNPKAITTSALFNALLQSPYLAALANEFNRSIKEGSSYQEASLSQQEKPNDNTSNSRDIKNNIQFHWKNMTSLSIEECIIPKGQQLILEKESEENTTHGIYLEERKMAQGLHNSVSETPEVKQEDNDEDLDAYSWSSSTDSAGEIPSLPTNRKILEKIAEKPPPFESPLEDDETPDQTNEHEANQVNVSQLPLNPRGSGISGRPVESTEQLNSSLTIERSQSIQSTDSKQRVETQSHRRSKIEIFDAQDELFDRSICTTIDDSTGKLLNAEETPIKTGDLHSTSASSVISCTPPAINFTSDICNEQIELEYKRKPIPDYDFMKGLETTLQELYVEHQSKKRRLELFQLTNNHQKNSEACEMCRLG

[3] = molecular target: T3, Tpz1-L449R (myc-tagged, expressed in fission yeast) (Schizosaccharomyces pombe) (UniProt O14246)
T3 sequence: T1 sequence with L449R, R498W, R501I

[4] = molecular target: T4, Tpz1-Y439R,L445R,L449R (myc-tagged, expressed in fission yeast) (Schizosaccharomyces pombe) (UniProt O14246)
T4 sequence: T1 sequence with Y439R, L445R, L449R, R498W, R501I

Measured: binding

B1: Pot1-FLAG (expressed in fission yeast) (protein, UniProt O13988 1-555)
chain: MGEDVIDSLQLNELLNAGEYKIGELTFQSIRSSQELQKKNTIVNLFGIVKDFTPSRQSLHGTKDWVTTVYLWDPTCDTSSIGLQIHLFSKQGNDLPVIKQVGQPLLLHQITLRSYRDRTQGLSKDQFRYALWPDFSSNSKDTLCPQPMPRLMKTGDKEEQFALLLNKIWDEQTNKHKNGELLSTSSARQNQTGLSYPSVSFSLLSQITPHQRCSFYAQVIKTWYSDKNFTLYVTDYTENELFFPMSPYTSSSRWRGPFGRFSIRCILWDEHDFYCRNYIKEGDYVVMKNVRTKIDHLGYLECILHGDSAKRYNMSIEKVDSEEPELNEIKSRKRLYVQNCQNGIEAVIEKLSQSQQSENPFIAHELKQTSVNEITAHVINEPASLKLTTISTILHAPLQNLLKPRKHRLRVQVVDFWPKSLTQFAVLSQPPSSYVWMFALLVRDVSNVTLPVIFFDSDAAELINSSKIQPCNLADHPQMTLQLKERLFLIWGNLEERIQHHISKGESPTLAAEDVETPWFDIYVKEYIPVIGNTKDHQSLTFLQKRWRGFGTKIV
binds: all assays above
